Measurements taken from paper PMC4150796.
These are yes or no findings as the source states them, for the method shown. Binding seen in cells or lysates may run through a third protein. Some binding calls cover weakened binding; strength is not graded here.

T1: EBNA3A, full-length, expressed in HEK293T cells (Epstein–Barr virus) (UniProt P12977)
T1 sequence: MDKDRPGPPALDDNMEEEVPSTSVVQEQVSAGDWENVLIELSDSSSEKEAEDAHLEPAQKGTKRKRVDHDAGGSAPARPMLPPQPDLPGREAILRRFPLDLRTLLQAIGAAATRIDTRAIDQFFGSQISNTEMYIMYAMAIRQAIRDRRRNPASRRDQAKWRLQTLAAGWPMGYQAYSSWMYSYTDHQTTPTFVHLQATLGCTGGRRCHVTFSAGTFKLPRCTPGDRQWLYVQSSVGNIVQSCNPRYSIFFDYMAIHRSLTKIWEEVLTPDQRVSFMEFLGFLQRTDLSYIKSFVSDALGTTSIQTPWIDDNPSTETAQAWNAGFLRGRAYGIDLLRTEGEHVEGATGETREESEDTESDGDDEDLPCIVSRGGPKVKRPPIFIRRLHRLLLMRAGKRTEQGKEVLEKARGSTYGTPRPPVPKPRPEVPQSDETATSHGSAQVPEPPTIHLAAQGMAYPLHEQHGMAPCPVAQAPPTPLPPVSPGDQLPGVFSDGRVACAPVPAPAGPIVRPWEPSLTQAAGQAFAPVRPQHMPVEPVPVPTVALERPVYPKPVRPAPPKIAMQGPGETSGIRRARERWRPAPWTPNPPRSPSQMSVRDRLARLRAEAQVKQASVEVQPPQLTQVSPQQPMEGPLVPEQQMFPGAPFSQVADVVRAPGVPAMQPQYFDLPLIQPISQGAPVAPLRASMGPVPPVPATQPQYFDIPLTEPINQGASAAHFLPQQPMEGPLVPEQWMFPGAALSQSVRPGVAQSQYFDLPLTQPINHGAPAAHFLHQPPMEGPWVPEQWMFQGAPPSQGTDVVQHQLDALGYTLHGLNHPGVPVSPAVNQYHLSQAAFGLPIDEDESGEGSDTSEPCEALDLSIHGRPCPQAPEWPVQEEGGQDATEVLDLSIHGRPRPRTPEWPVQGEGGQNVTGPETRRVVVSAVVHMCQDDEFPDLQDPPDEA

B1: Zyxin, full-length, expressed in HEK293T cells (protein, UniProt Q15942 1-572)
chain: MAAPRPSPAISVSVSAPAFYAPQKKFGPVVAPKPKVNPFRPGDSEPPPAPGAQRAQMGRVGEIPPPPPEDFPLPPPPLAGDGDDAEGALGGAFPPPPPPIEESFPPAPLEEEIFPSPPPPPEEEGGPEAPIPPPPQPREKVSSIDLEIDSLSSLLDDMTKNDPFKARVSSGYVPPPVATPFSSKSSTKPAAGGTAPLPPWKSPSSSQPLPQVPAPAQSQTQFHVQPQPQPKPQVQLHVQSQTQPVSLANTQPRGPPASSPAPAPKFSPVTPKFTPVASKFSPGAPGGSGSQPNQKLGHPEALSAGTGSPQPPSFTYAQQREKPRVQEKQHPVPPPAQNQNQVRSPGAPGPLTLKEVEELEQLTQQLMQDMEHPQRQNVAVNELCGRCHQPLARAQPAVRALGQLFHIACFTCHQCAQQLQGQQFYSLEGAPYCEGCYTDTLEKCNTCGEPITDRMLRATGKAYHPHCFTCVVCARPLEGTSFIVDQANRPHCVPDYHKQYAPRCSVCSEPIMPEPGRDETVRVVALDKNFHMKCYKCEDCGKPLSIEADDNGCFPLDGHVLCRKCHTARAQT
B2: Zinc finger and BTB domain containing 17 (MIZ-1), full-length, expressed in HEK293T cells (protein, UniProt Q13105 1-803)
chain: MDFPQHSQHVLEQLNQQRQLGLLCDCTFVVDGVHFKAHKAVLAACSEYFKMLFVDQKDVVHLDISNAAGLGQVLEFMYTAKLSLSPENVDDVLAVATFLQMQDIITACHALKSLAEPATSPGGNAEALATEGGDKRAKEEKVATSTLSRLEQAGRSTPIGPSRDLKEERGGQAQSAASGAEQTEKADAPREPPPVELKPDPTSGMAAAEAEAALSESSEQEMEVEPARKGEEEQKEQEEQEEEGAGPAEVKEEGSQLENGEAPEENENEESAGTDSGQELGSEARGLRSGTYGDRTESKAYGSVIHKCEDCGKEFTHTGNFKRHIRIHTGEKPFSCRECSKAFSDPAACKAHEKTHSPLKPYGCEECGKSYRLISLLNLHKKRHSGEARYRCEDCGKLFTTSGNLKRHQLVHSGEKPYQCDYCGRSFSDPTSKMRHLETHDTDKEHKCPHCDKKFNQVGNLKAHLKIHIADGPLKCRECGKQFTTSGNLKRHLRIHSGEKPYVCIHCQRQFADPGALQRHVRIHTGEKPCQCVMCGKAFTQASSLIAHVRQHTGEKPYVCERCGKRFVQSSQLANHIRHHDNIRPHKCSVCSKAFVNVGDLSKHIIIHTGEKPYLCDKCGRGFNRVDNLRSHVKTVHQGKAGIKILEPEEGSEVSVVTVDDMVTLATEALAATAVTQLTVVPVGAAVTADETEVLKAEISKAVKQVQEEDPNTHILYACDSCGDKFLDANSLAQHVRIHTAQALVMFQTDADFYQQYGPGGTWPAGQVLQAGELVFRPRDGAEGQPALAETSPTAPECPPPAE
B3: Coiled-coil domain containing 80, full-length, expressed in HEK293T cells (protein, UniProt Q76M96 22-950)
chain: EPHPHATIRGSHGGRKVPLVSPDSSRPARFLRHTGRSRGIERSTLEEPNLQPLQRRRSVPVLRLARPTEPPARSDINGAAVRPEQRPAARGSPREMIRDEGSSARSRMLRFPSGSSSPNILASFAGKNRVWVISAPHASEGYYRLMMSLLKDDVYCELAERHIQQIVLFHQAGEEGGKVRRITSEGQILEQPLDPSLIPKLMSFLKLEKGKFGMVLLKKTLQVEERYPYPVRLEAMYEVIDQGPIRRIEKIRQKGFVQKCKASGVEGQVVAEGNDGGGGAGRPSLGSEKKKEDPRRAQVPPTRESRVKVLRKLAATAPALPQPPSTPRATTLPPAPATTVTRSTSRAVTVAARPMTTTAFPTTQRPWTPSPSHRPPTTTEVITARRPSVSENLYPPSRKDQHRERPQTTRRPSKATSLESFTNAPPTTISEPSTRAAGPGRFRDNRMDRREHGHRDPNVVPGPPKPAKEKPPKKKAQDKILSNEYEEKYDLSRPTASQLEDELQVGNVPLKKAKESKKHEKLEKPEKEKKKKMKNENADKLLKSEKQMKKSEKKSKQEKEKSKKKKGGKTEQDGYQKPTNKHFTQSPKKSVADLLGSFEGKRRLLLITAPKAENNMYVQQRDEYLESFCKMATRKISVITIFGPVNNSTMKIDHFQLDNEKPMRVVDDEDLVDQRLISELRKEYGMTYNDFFMVLTDVDLRVKQYYEVPITMKSVFDLIDTFQSRIKDMEKQKKEGIVCKEDKKQSLENFLSRFRWRRRLLVISAPNDEDWAYSQQLSALSGQACNFGLRHITILKLLGVGEEVGGVLELFPINGSSVVEREDVPAHLVKDIRNYFQVSPEYFSMLLVGKDGNVKSWYPSPMWSMVIVYDLIDSMQLRRQEMAIQQSLGMRCPEDEYAGYGYHSYHQGYQDGYQDDYRHHESYHHGYPY
B4: Nuclear transcription factor Y, gamma, full-length, expressed in HEK293T cells (protein, UniProt Q13952 1-458)
chain: MSTEGGFGGTSSSDAQQSLQSFWPRVMEEIRNLTVKDFRVQELPLARIKKIMKLDEDVKMISAEAPVLFAKAAQIFITELTLRAWIHTEDNKRRTLQRNDIAMAITKFDQFDFLIDIVPRDELKPPKRQEEVRQSVTPAEPVQYYFTLAQQPTAVQVQGQQQGQQTTSSTTTIQPGQIIIAQPQQGQTTPVTMQVGEGQQVQIVQAQPQGQAQQAQSGTGQTMQVMQQIITNTGEIQQIPVQLNAGQLQYIRLAQPVSGTQVVQGQIQTLATNAQQGQRNASQGKPRRCLKETLQITQTEVQQGQQQFSQFTDGQRNSVQQARVSELTGEAEPREVKATGNSTPCTSSLPTTHPPSHRAGASCVCCSQPQQSSTSPPPSDALQWVVVEVSGTPNQLETHRELHAPLPGMTSLSPLHPSQQLYQIQQVTMPAGQDLAQPMFIQSANQPSDGQAPQVTGD

What was measured:
Assay in all cases: co-IP; HEK293T cells transfected with expression plasmids for full-length proteins; IP buffer 50 mM Tris-HCl pH 7.5, 150–300 mM NaCl, 1 mM DTT, 0.5% Nonidet P-40; which partner was precipitated is not told
[1] = target: T1, EBNA3A, full-length, expressed in HEK293T cells (Epstein–Barr virus)
[2] = target: EBNA3B, full-length, expressed in HEK293T cells (Epstein–Barr virus) (UniProt P03203)
[3] = target: EBNA3C, full-length, expressed in HEK293T cells (Epstein–Barr virus) (UniProt P03204)

Molecule	binding [1]	binding [2]	binding [3]
Arrestin, beta 2, full-length, expressed in HEK293T cells (from UniProt P32121 1-409)	binds	binds	binds
C-terminal binding protein 2, full-length, expressed in HEK293T cells (from UniProt P56545 1-445)	binds	binds	binds
COP9 constitutive photomorphogenic homolog, subunit 5, full-length, expressed in HEK293T cells (from UniProt Q92905 1-334)	binds	binds	binds
DnaJ (Hsp40) homolog, subfamily B, member 1, full-length, expressed in HEK293T cells (from UniProt P25685 1-340)	binds	binds	binds
Eukaryotic translation initiation factor 3 subunit F, full-length, expressed in HEK293T cells (from UniProt O00303 1-357)	binds	binds	binds
F-box protein, helicase, 18, full-length, expressed in HEK293T cells (from UniProt Q8NFZ0 1-1043)	binds	–	binds
Heterogeneous nuclear ribonucleoprotein K, full-length, expressed in HEK293T cells (from UniProt P61978 1-463)	–	–	binds
Mesenchyme homeobox 1, full-length, expressed in HEK293T cells (from UniProt P50221 1-254)	binds	binds	binds
Microspherule protein 1, full-length, expressed in HEK293T cells (from UniProt Q96EZ8 1-462)	binds	binds	binds
PDZ and LIM domain 7, full-length, expressed in HEK293T cells (from UniProt Q9NR12 1-457)	binds	binds	binds
Proteasome subunit, alpha, type 7, full-length, expressed in HEK293T cells (from UniProt O14818 1-248)	binds	binds	–
SMT3 suppressor of mif two 3 homolog 2, full-length, expressed in HEK293T cells (from UniProt P61956 1-95)	binds	binds	binds
Stress induced phosphoprotein 1, full-length, expressed in HEK293T cells (from UniProt P31948 1-543)	binds	binds	binds
Trafficking protein particle complex 6A, full-length, expressed in HEK293T cells (from UniProt O75865 1-159)	binds	binds	binds
B1	binds	binds	–
B2	binds	binds	binds
B3	binds	binds	binds
B4	binds	binds	–
